Assay results reported in PubChem BioAssay AID1346428 (National Center for Advancing Translational Sciences (NCATS), 2018).
The campaign covered roughly 48,000 compounds. About 1,200 (2.5%) were called active. Roughly 2% stayed inconclusive and do not appear here.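 How the source made its calls: active means activation of at least 60% and not above a set upper limit (about 1 call in 100 departs from these limits); inconclusive means activation of 40% to 60%, or above that upper limit; inactive means activation under 40%.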 The list shows a part of the results.

Molecular target: Probable G-protein coupled receptor 32 (Homo sapiens) (UniProt O75388)
Assay: qHTS for Agonists of Human Resolvin D1 Receptor DRV1; further: 0% is about no effect
Details: CHO-K1 GPR32 beta-arrestin PathHunter luminescence, 90 min; at 76.9 µM; stronger effect = higher value; zero percent set by DMSO-only wells
Summary of the method: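 Step 1: seed CHO-K1 GPR32 beta-arrestin cells, 2,500/well, overnight at 37 °C. Step 2: add compounds, 90 min at 37 °C. Step 3: detection reagent, 1 h ambient, then luminescence.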

Chain of UniProt O75388 (O75388 whole entry, looked up): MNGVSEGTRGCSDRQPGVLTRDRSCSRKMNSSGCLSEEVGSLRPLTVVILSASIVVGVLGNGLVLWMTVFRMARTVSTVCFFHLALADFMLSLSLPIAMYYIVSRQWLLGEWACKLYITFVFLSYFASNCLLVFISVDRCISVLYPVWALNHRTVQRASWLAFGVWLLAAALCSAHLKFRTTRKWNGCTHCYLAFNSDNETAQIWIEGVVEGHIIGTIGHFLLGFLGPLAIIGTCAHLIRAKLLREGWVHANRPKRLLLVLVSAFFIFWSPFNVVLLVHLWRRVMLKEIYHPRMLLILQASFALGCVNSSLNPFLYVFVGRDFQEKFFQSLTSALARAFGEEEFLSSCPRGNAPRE

activation, inactive:
CC(C)(C)OC(=O)N1CCC(c2c(C(=O)N3CCC(c4ccccc4)C3)cnn2-c2cccc(Cl)c2)CC1 (configuration not stated) -24.4%
Cc1cccc(OCC(=O)N(Cc2cccs2)c2ccc(Cl)cc2)c1C -4.73%
CCOc1ccc(CCNC(=O)Cn2nc(CC)n3c(cc4ccccc43)c2=O)cc1 -4.49%
COc1ccc(-c2c3c(=O)n(C)c(=O)n(C)c3c3n2-c2ccccc2NC3c2ccco2)cc1 (configuration not stated) -7.65%
COc1cc(C(=O)NCC(c2cccs2)S(=O)(=O)c2cccs2)cc(OC)c1OC (configuration not stated) 27.5%
Cc1cc(=O)n(CC(=O)N2CCN(c3ccccc3F)CC2)c2c1c(C)nn2C 40%
CCc1ccccc1NC(=O)c1cnc(N2CCCCC2)c2ccccc12 0.647%
CCOC(=O)c1[nH]c(C)c(CCC(=O)Nc2cc(C)ccc2OC)c1C -12.9%
CCC(Sc1nc(-c2ccccc2F)nc2c1Cc1c(CO)cnc(C)c1O2)C(=O)Nc1cc(C)ccc1C (configuration not stated) 0.267%
CCOc1ccc(CCNC(=O)C2=C(C)C(=O)OC23CCCCC3)cc1 -18.3%
Cc1ccccc1CN1CCC(CNC(=O)c2c(C)oc3ncnc(N4CCCCC4)c23)CC1 -2.16%
CCN1C(=O)c2ccccc2S(=O)c2ccc(C(=O)N3CCN(c4cc(Cl)ccc4C)CC3)cc21 (configuration not stated) -8.84%
CN(Cc1ccccc1)C(=O)c1ccc2c(c1)N(Cc1ccccc1Cl)C(=O)c1ccccc1S2 -27.6%
Fc1ccc(-c2noc3ncnc(NCc4ccc(Cl)cc4)c23)cc1 -2.61%
O=C(CCn1c(=O)c2cccn2c2cccnc21)NCc1ccc(F)cc1 -13.4%
COc1cc(C2CC(=O)Oc3c2c(=O)n(C)c2ccccc32)ccc1O (configuration not stated) 12.6%
Nc1ccc([N+](=O)[O-])c(C(F)(F)F)c1 -37.8%
COc1ccc(-c2cc(C(C)=O)c(C)n2CCC(=O)Nc2cc(Cl)ccc2C)cc1 -21.4%
CCOC(=O)C1CCN(S(=O)(=O)c2ccc3c(c2)N(C)C(=O)CC(=O)N3C)CC1 -0.982%
COc1ccc(C(=O)NC2(C(F)(F)F)C(=O)Nc3c2c(=O)[nH]c(=O)n3CCc2ccc(OC)c(OC)c2)cc1 (configuration not stated) -1.72%
CCOC(=O)c1c(C)[nH]c(C)c1S(=O)(=O)N(C)CC(=O)Nc1ccc(C)cc1C -38.4%
O=C(COc1ccccc1)Nc1ccc2nc(SCCOc3ccccc3)sc2c1 -4.95%
Cc1ccc(Cl)cc1N1CCN(C(=O)c2ccc(CS(=O)(=O)c3ccccc3C)o2)CC1 -2.62%
Cc1ccc(NC(=O)Cn2c(=O)n(CC3CCCO3)c(=O)c3ccccc32)cc1 (configuration not stated) -1.34%
Cc1cc(C)c2oc(-c3cccc(NC(=O)COc4ccc([N+](=O)[O-])cc4)c3)nc2c1 -13.3%
COc1cc2nc(NC(=O)c3ccc(S(=O)(=O)N4CCOCC4)cc3)sc2cc1OC 25.3%
CCCS(=O)(=O)N1CC(=O)N(c2ccc(Cl)cc2C)C(C)(C(=O)NC2CCCC2)C1 (configuration not stated) -5.28%
COc1ccc(NC(=O)CSC2=Nc3ccccc3C3=NC(CCC(=O)NC4CCCCC4)C(=O)N23)cc1 (configuration not stated) -24.9%
N[C@@H](CSCCCO)C(=O)O -20.1%
CCOC(=O)c1cccc(NC(=O)CCn2c(-c3ccc(F)cc3)cc(C(=O)OCC)c2C)c1 -29%
CC(=O)c1cccc(NC(=O)C2CCN(S(=O)(=O)c3ccc4c(c3)oc(=O)n4C)CC2)c1 13%
COc1c(C)cccc1C(=O)Nc1cccc2ccc(C)nc12 -4.93%
O=C(CSCc1ccccc1Cl)N1CCN(c2ccc(Cl)cc2)CC1 -17.5%
O=C(O)/C=C/c1cnc[nH]1 -6.19%
O=C1CC[C@H](C(=O)N2CCCCC2)N1 2.09%
COc1ccc(Cn2ccn(Cc3cccc(OC)c3)c(=O)c2=O)cc1 -9.35%
CCOC(=O)C1CCN(C(=O)c2ccc(-n3ccc4ccccc43)s2)CC1 -23.9%
Cc1cccc(NC(=O)N2CC(=O)Nc3sc4c(c3C2c2ccccc2)CCCC4)c1C (configuration not stated) -33.5%
Cc1ccc(C(=O)c2cn(CC(=O)Nc3ccc(C)cc3Cl)c3nc(C)ccc3c2=O)cc1 7.12%
CCOc1cc(CNC(=O)c2ccc3c(c2)NC(=O)C2CCCCN32)cc(OCC)c1OCC (configuration not stated) 19.3%
Cc1ccc(Cl)cc1N1CCN(C(=O)c2ccc3c(c2)N(Cc2ccc(F)cc2)CCS3)CC1 -20.1%
Cc1cn2c(=O)cc(COC(=O)c3ccc(NC(=O)COc4ccccc4F)cc3)nc2s1 -13.5%
CCOc1ccccc1OCCCn1c(-c2ccc(Cl)cc2)nc2ccccc2c1=O -10.2%
Cc1cc(C)cc(-n2c(-c3ccccc3)c(C)n3c4c(=O)n(C)c(=O)n(C)c4nc23)c1 2%
CCCCn1cc2c(c1-c1ccc(Cl)cc1)c(=O)n(C)c(=O)n2C -23.9%
COc1cc(OC)c(Nc2nc3ccc(C(=O)c4ccccc4)cc3n3c(C)nnc23)cc1Cl 2.58%
O=c1nc2n(-c3ccccc3F)c3ccccc3cc-2c(=O)[nH]1 -2.79%
O=C(Nc1ccc(OC(F)(F)F)cc1)c1cc2ccccn2n1 20.8%
Cc1cc(C)cc(NS(=O)(=O)c2cc3c(cc2C)NC(=O)CO3)c1 -0.206%
COc1ccc(Cl)cc1NC(=O)c1sc2nc3n(c(=O)c2c1C)CCC3 0.778%
COc1ccc(NC(=O)CSc2nnc(-c3nonc3NC(C)=O)n2-c2ccccc2)cc1 -5.24%
CCC(=O)N(CCC(c1ccccc1)c1ccc2c(c1)OCO2)Cc1ccc(OC(C)C)cc1 (configuration not stated) -14%
CCOC(=O)c1c(NC(=O)c2ccc(S(=O)(=O)N(CC(C)C)CC(C)C)cc2)sc2c1CCN(C(=O)OCC)C2 -9.35%
CCC(Sc1nc2ccccc2c(=O)n1CCc1ccc(OC)c(OC)c1)C(=O)N(CC)CC (configuration not stated) -30.3%
Cc1cc(C)n(-c2nc3ccccc3nc2Nc2cccc(C)c2C)n1 -23.3%
CCOc1ccc(CCNS(=O)(=O)c2cc(Br)cc3c2N(C(C)=O)CC3)cc1OCC -0.108%
CCCN(C(=O)Cn1cnc2onc(-c3ccc(F)cc3)c2c1=O)c1cccc(Cl)c1 -10.7%
CCN(CC)C(=O)Cn1c(=O)n(Cc2ccc(C(=O)NCCc3ccc(OC)c(OC)c3)cc2)c(=O)c2ccccc21 -8.03%
COC(=O)c1c(NC(=O)CCCOc2cccc(C)c2)sc2c1C(C(=O)OC)CC2 (configuration not stated) -22.5%
CCc1ccc(CN(Cc2cn[nH]c2-c2ccc(OC)cc2)C(=O)Nc2cc(Cl)ccc2OC)cc1 -20.2%
Cc1ccc(-n2ncc3c(NC4CCCCCC4)ncnc32)cc1Cl 36.7%
CC(=O)c1ccc(N2C(=O)N(CC(=O)c3ccc(F)cc3)c3ccccc3S2(=O)=O)cc1 -15.1%
Cc1ccc(-n2ncc(C(=O)NCc3ccco3)c2C2CCN(C(=O)OC(C)(C)C)CC2)c(C)c1 -48.7%
CCOC(=O)C1=C(C)N=C2SCCC(=O)N2C1c1ccc(OCc2ccccc2)cc1 (configuration not stated) 18.4%
COc1ccc(S(=O)(=O)NCCc2csc(-c3ccc(F)cc3)n2)cc1F -15.5%
Cn1nc(C(=O)Nc2ccc(F)c(Cl)c2)c2c1-c1ccccc1S(=O)(=O)C2 -4.72%
CC(=O)CSc1nnc2[nH]c(=O)cc(N)n12 14.3%
CCOc1cc2[nH]c(=O)n(Cc3ccc(C(=O)N4CCN(c5cccc(Cl)c5)CC4)cc3)c(=O)c2cc1OCC 5.6%
COc1cc(C2NC(=O)c3c(sc4c3CCN(C)C4)N2)cc(OC)c1OC (configuration not stated) -6.65%
Cc1cccc(-c2nnc(C3CCN(S(=O)(=O)c4cccc(Cl)c4)CC3)o2)c1 -22%
CCc1ccc(CNC(=O)C2CCN(c3nn4cc(-c5ccc(F)cc5)nc4s3)CC2)cc1 5.68%
COc1ccc(Br)cc1CN1C(=O)c2ccccc2C1C(=O)NC1CCCCCC1 (configuration not stated) -19.9%
O=C(Cn1c(=O)nc(-c2ccccc2)c2cc(Cl)ccc21)N1CCN(c2ccc(F)cc2)CC1 -15.5%
CCOC(=O)c1c(C)c(-c2ccccc2)n(CC(=O)NC2CCCCC2)c1C -1.9%
COc1cc(NC(=O)Cn2cnc(S(=O)(=O)N3CCCC3)c2)cc(OC)c1OC 1.25%
Cc1cccc(CNC(=O)CS(=O)(=O)c2cccc3nsnc23)c1 -6.28%
CCOC(=O)c1c(C)[nH]c(C)c1S(=O)(=O)N1CCCC(C(=O)N2CCN(c3cccc(C)c3C)CC2)C1 (configuration not stated) -5.8%
COc1ccc(Cl)cc1NC(=O)c1nn(-c2ccc(C)cc2)c(=O)n(C)c1=O -4.98%
CCN(C(=O)c1cnc2ccc(C)cn2c1=O)c1ccccc1 2.74%
CCOC(=O)C1CCN(C(c2cccc(F)c2)c2c(O)cc(C)n(CCOC)c2=O)CC1 (configuration not stated) -11.8%
COCCNC(=O)c1cnc2sc(N3CCC(C)CC3)nn2c1=O 6.35%
COC(=O)C1=C(C)NC(C)=C(C(=O)OC(C)C)C1c1cccc2nonc12 (configuration not stated) -31.9%
